Experimental data published in US8816122B2 (The Board of Trustees of the Leland Stanford Junior …, priority 2009, dated 2014).

Columns and labels:
[1] = system: K562 human leukemia cells; assay: K562 cell efficacy assay (MTT growth inhibition); assay type: cell-based; settings: growth inhibition of K562 cells, 48 h, error as SEM
Experimental: A cell efficacy assay (See Mossmann, Rapid colorimetric assay for cellular growth and survival: Application to proliferation and cytotoxicity assays. J. Immunological Methods 1983, 65, 55-63) was used to determine the EC50 for growth inhibition for K562 human leukemia cells. […] Analog was added via 10 or 20 triplicate serial dilutions (11 or 21 total concentrations) by 3× starting from 10 μM (final assay concentration). The cells were incubated at 37° C. for 48 h and worked up using standard MTT ((3-(4,5-Dimthylthiazol-yl)-2,5-diphenyltetrazolium bromide) protocols. Each compound was tested three times, and the error is reported as SEM.

PKC βI = PKC βI (Homo sapiens, UniProt P05771); assay: PKC competitive binding assay with [3H]PDBu, specific PKC isozyme
[2] = system: U1 promonocytic cells containing two integrated HIV proviruses; assay: Viral activation of U1 promonocytic cells, HIV p24 ELISA of supernatant; assay type: cell-based; settings: for Minimum Concentration for Viral Expression: measured by p24 levels
Experimental: After 48 hours of incubation with compound, we harvest the supernatant and assess the amount of virus present by using an ELISA specific for HIV p24 (the core protein of the HIV virion).

[3] = biological target: rat brain PKC isoform mixture; assay type: binding
CD69 = CD69 surface marker induction in primary quiescent CD4+ T cells; assay type: cell-based
Experimental: (§1) In addition to the U1 data, the compounds from Table 1 above were tested for their effects on surface markers in primary quiescent CD+ T cells (data generated by J. Zack et. al. at UCLA).

CD4 = CD4 surface marker decrease in primary quiescent CD4+ T cells; assay type: cell-based
Experimental: as §1

latent HIV-1 = settings: more potent than prostratin; cited from earlier work
HIV-1 = settings: CEM-SS and C-8166 cell lines; cited from earlier work
[4] = system: CEM-SS and C-8166 cell lines; settings: cited from earlier work

Chain of UniProt P05771 (P05771 whole entry): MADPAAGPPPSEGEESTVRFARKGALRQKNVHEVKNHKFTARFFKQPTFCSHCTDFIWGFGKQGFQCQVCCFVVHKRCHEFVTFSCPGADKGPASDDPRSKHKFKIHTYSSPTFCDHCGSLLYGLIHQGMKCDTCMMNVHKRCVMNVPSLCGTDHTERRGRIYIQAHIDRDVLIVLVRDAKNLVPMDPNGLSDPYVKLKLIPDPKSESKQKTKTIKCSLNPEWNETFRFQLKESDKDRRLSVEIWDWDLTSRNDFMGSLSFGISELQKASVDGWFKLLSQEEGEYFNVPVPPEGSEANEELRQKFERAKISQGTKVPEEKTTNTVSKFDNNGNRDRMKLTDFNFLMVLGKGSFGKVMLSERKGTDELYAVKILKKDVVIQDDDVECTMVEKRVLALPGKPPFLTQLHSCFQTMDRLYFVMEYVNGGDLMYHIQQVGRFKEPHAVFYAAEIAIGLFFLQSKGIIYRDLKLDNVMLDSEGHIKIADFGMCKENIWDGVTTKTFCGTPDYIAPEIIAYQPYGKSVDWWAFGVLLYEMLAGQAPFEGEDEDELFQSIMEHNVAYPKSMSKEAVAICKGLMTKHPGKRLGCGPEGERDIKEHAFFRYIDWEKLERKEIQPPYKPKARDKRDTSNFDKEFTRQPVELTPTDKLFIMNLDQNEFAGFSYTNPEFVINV

SMILES	EC50 [1]	Ki (PKC βI)	Concentration at Maximum p24 Level [2]	Minimum Concentration for Viral Expression [2]	Ki [3]	Minimum Concentration for CD69 Induction (CD69)	Minimum Concentration for CD4 Decrease (CD4)	potency in activating latent HIV-1 relative to prostratin (latent HIV-1)	concentration at which cell viability was restored to the level of uninfected controls (HIV-1)	concentration up to which no sign of cytotoxicity was observed [4]
CO[C@@H]1[C@@H](C)[C@@]2(O)[C@@H](C=C(CO)C[C@]3(O)C(=O)C(C)=C[C@@H]23)[C@@H]2C(C)(C)C12OC(C)=O (stereo partly drawn) [C12-Methyl-C13-Acetyl Phorbol]	700 ± 200 nM	3 nM								
C=C1CC2CC3CCCC(CC(O)CC(=O)OC(CO)CC4CC(=CC(=O)OC)C(OC(=O)CCCCCCC)C(O)(O4)C(C)(C)C=CC(O1)O2)O3 (stereo not drawn) [C13 Olefin]			1000 nM	1 nM	1.63 nM	10 nM	100 nM			
CCCCCCCC(=O)OC1C(=CC(=O)OC)CC2CC(CO)OC(=O)CC(O)CC3CCCC(CC4CC(=CC(=O)OC)OC(C=CC(C)(C)C1(O)O2)O4)O3 (stereo not drawn) [C13 Z Enoate]			100 nM	0.1 to 1 nM	0.9 nM	1 nM	100 nM			
CC1=C[C@H]2[C@@]3(O)[C@H](C)C[C@]4(OC(=O)Cc5ccccc5)[C@H]([C@@H]3C=C(CO)C[C@]2(O)C1=O)C4(C)C [DPP, 12-deoxyphorbol 13-phenylacetate]								20-30 fold		
CCCCCCCC(=O)O[C@H]1/C(=C/C(=O)OC)C[C@H]2C[C@H](CO)OC(=O)C[C@H](O)C[C@@H]3CCC[C@H](C[C@@H]4CCO[C@H](/C=C/C(C)(C)[C@]1(O)O2)O4)O3 [Picolog]			1000 nM	10 nM	3.1 nM	100 nM	1000 nM			
CC(=O)O[C@@]12C[C@@H](C)[C@@]3(O)[C@@H](C=C(CO)C[C@]4(O)C(=O)C(C)=C[C@@H]34)[C@@H]1C2(C)C [Prostratin, C12-deoxy-C13-acetyl phorbol, reference compound]			10000 nM	1000 nM		1000 nM	10000 nM		approximately 1 μM	about 25 μM
